Data reported in PMC5993806.
Like-named read-outs stand apart in the source and are kept apart here. No constants are given. Whether binding was seen depends on the method and setting. Binding seen in cells or lysates may run through a third protein. Some binding calls cover weakened binding; strength is not graded here. For some assays here: Sequences can lack the tags named with a protein.

By UniProt entry, the sequences of proteins in these tests, tags left out. Where a name states a change or a piece, a line headed by the entry shows the natural chain unless it says otherwise.
UniProt Q15173: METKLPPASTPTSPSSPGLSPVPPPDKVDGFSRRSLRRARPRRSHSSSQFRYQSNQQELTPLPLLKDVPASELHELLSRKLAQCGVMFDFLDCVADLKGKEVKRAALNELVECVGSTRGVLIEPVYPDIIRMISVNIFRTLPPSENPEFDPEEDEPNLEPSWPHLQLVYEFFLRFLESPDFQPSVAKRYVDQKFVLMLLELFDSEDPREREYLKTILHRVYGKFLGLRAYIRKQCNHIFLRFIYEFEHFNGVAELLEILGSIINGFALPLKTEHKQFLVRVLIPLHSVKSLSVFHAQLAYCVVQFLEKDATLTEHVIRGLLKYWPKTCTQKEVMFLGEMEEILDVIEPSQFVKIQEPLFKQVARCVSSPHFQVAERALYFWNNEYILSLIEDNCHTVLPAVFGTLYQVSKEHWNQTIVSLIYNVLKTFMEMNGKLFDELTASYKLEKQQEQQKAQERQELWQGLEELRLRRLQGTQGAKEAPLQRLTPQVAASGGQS
UniProt Q15172: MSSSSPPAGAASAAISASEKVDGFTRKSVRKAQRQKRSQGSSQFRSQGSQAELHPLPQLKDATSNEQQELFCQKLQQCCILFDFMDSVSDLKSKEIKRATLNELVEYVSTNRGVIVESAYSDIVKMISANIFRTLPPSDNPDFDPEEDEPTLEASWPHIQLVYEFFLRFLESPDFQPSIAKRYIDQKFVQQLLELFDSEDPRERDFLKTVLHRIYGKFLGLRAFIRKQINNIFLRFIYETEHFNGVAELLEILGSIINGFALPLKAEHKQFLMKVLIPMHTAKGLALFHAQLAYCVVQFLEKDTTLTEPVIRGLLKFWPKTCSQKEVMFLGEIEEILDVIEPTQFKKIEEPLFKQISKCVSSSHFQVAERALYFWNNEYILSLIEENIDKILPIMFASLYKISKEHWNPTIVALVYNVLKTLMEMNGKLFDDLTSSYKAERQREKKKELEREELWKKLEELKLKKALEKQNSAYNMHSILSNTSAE
UniProt Q9Y3Z3: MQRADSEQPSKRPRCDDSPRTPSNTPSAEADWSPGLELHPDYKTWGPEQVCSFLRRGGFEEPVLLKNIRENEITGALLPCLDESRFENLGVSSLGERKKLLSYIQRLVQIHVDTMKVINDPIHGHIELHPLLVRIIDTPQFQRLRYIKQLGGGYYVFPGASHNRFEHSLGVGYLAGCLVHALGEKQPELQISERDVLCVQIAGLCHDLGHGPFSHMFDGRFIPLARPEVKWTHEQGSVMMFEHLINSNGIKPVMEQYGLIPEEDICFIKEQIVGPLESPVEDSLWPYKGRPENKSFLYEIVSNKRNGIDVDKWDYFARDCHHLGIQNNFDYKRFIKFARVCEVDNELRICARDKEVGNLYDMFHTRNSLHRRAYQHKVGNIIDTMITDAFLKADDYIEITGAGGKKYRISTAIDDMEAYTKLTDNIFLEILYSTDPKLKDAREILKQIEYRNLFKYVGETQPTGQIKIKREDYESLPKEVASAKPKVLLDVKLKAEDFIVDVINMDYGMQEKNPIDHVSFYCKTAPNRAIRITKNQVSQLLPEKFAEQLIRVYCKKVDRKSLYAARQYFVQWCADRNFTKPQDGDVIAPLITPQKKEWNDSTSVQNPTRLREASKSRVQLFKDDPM
UniProt P30153: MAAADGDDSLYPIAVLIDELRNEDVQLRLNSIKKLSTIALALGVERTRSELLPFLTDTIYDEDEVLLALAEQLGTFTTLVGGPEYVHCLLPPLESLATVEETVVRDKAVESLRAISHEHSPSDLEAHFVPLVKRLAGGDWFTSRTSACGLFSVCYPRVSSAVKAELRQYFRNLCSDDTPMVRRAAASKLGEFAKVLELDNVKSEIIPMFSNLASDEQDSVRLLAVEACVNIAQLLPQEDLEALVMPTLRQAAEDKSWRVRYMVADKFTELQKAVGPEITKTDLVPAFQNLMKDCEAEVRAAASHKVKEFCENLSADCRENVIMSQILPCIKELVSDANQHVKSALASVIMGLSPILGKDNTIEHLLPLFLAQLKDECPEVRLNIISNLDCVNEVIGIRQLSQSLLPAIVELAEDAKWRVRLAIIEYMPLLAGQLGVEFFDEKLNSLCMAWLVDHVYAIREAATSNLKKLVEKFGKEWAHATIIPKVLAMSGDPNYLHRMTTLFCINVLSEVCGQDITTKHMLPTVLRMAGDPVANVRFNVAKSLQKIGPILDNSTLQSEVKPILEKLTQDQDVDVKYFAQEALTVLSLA

Key:
[1] = biological target: T1, N-terminally GST-tagged PP2A PR72 subunit (UniProt Q06190); experiment: co-IP; HEK293T cells co-transfected with nFLAG-SAMHD1 and GST-tagged PP2A B-type subunits; NET lysis buffer; GST-Trap_M magnetic beads, 1.5 h at 4 °C; immunoblot
T1 sequence: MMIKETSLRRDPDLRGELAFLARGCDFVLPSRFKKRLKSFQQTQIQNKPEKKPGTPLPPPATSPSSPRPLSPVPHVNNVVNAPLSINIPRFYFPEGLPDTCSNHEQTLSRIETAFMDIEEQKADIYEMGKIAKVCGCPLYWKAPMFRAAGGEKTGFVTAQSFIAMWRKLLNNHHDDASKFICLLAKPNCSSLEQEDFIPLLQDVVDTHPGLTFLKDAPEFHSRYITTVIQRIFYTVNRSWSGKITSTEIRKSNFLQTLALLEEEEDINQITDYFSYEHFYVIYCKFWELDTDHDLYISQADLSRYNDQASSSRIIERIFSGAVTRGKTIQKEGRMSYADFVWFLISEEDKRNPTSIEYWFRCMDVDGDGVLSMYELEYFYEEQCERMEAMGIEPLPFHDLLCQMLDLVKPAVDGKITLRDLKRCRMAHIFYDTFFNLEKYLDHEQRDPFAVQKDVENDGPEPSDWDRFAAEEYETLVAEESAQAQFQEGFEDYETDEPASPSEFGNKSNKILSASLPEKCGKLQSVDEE

[2] = biological target: N-terminally GST-tagged PP2A B56β subunit (UniProt Q15173); experiment: as above
[3] = biological target: N-terminally GST-tagged PP2A B56α subunit (UniProt Q15172); experiment: as above
[4] = biological target: T2, N-terminally GST-tagged PP2A B55α subunit (UniProt P63151); experiment: as above
T2 sequence: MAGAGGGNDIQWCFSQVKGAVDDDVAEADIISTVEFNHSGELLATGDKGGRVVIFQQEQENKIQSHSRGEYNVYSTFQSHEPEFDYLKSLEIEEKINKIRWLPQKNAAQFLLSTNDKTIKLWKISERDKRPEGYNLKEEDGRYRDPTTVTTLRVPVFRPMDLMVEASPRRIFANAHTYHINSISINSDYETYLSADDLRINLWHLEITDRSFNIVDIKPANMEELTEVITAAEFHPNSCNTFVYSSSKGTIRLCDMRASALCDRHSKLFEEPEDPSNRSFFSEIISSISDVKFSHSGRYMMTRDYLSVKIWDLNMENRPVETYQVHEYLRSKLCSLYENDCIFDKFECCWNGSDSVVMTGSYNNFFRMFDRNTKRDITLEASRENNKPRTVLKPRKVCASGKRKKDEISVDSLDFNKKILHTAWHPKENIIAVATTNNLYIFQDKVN

[5] = biological target: SAMHD1 T592A (human) (UniProt Q9Y3Z3); experiment: co-IP
[6] = biological target: N-terminally FLAG-tagged SAMHD1 (human, wild type) (human) (UniProt Q9Y3Z3); experiment: co-IP
[7] = biological target: SAMHD1 R451E (human) (UniProt Q9Y3Z3); experiment: co-IP
[8] = biological target: SAMHD1 T592E (human) (UniProt Q9Y3Z3); experiment: co-IP
[9] = biological target: N-terminally FLAG-tagged SAMHD1 (human, wild type) (human) (UniProt Q9Y3Z3); experiment: co-IP; remark: listed apart in the source
[10] = biological target: endogenous SAMHD1 (THP-1) (human (endogenous in THP-1)) (UniProt Q9Y3Z3); experiment: co-IP; cycling THP-1 cells (2 x 10^7 cells/sample); anti-IgG1/SAMHD1-coated sepharose beads; immunoblot; both proteins endogenous

## N-terminally FLAG-tagged SAMHD1 (human, wild type) (from UniProt Q9Y3Z3 1-626)
[1]
  binding: no binding
[2]
  binding: no binding
[3]
  binding: no binding
[4]
  binding: binds

## PP2A Aα subunit (from UniProt P30153 1-589)
[5]
  binding: binds
[6]
  binding: binds
[7]
  binding: binds
[8]
  binding: binds

B1: GFP-tagged PP2A B55α subunit (protein, UniProt P63151 1-447)
chain: MAGAGGGNDIQWCFSQVKGAVDDDVAEADIISTVEFNHSGELLATGDKGGRVVIFQQEQENKIQSHSRGEYNVYSTFQSHEPEFDYLKSLEIEEKINKIRWLPQKNAAQFLLSTNDKTIKLWKISERDKRPEGYNLKEEDGRYRDPTTVTTLRVPVFRPMDLMVEASPRRIFANAHTYHINSISINSDYETYLSADDLRINLWHLEITDRSFNIVDIKPANMEELTEVITAAEFHPNSCNTFVYSSSKGTIRLCDMRASALCDRHSKLFEEPEDPSNRSFFSEIISSISDVKFSHSGRYMMTRDYLSVKIWDLNMENRPVETYQVHEYLRSKLCSLYENDCIFDKFECCWNGSDSVVMTGSYNNFFRMFDRNTKRDITLEASRENNKPRTVLKPRKVCASGKRKKDEISVDSLDFNKKILHTAWHPKENIIAVATTNNLYIFQDKVN
[9]
  binding: binds

B2: endogenous PP2A B55α subunit (HEK293T) (protein, UniProt P63151 1-447)
chain: MAGAGGGNDIQWCFSQVKGAVDDDVAEADIISTVEFNHSGELLATGDKGGRVVIFQQEQENKIQSHSRGEYNVYSTFQSHEPEFDYLKSLEIEEKINKIRWLPQKNAAQFLLSTNDKTIKLWKISERDKRPEGYNLKEEDGRYRDPTTVTTLRVPVFRPMDLMVEASPRRIFANAHTYHINSISINSDYETYLSADDLRINLWHLEITDRSFNIVDIKPANMEELTEVITAAEFHPNSCNTFVYSSSKGTIRLCDMRASALCDRHSKLFEEPEDPSNRSFFSEIISSISDVKFSHSGRYMMTRDYLSVKIWDLNMENRPVETYQVHEYLRSKLCSLYENDCIFDKFECCWNGSDSVVMTGSYNNFFRMFDRNTKRDITLEASRENNKPRTVLKPRKVCASGKRKKDEISVDSLDFNKKILHTAWHPKENIIAVATTNNLYIFQDKVN
[9]
  binding: binds

B3: endogenous PP2A B55α subunit (THP-1) (protein, UniProt P63151 1-447)
chain: MAGAGGGNDIQWCFSQVKGAVDDDVAEADIISTVEFNHSGELLATGDKGGRVVIFQQEQENKIQSHSRGEYNVYSTFQSHEPEFDYLKSLEIEEKINKIRWLPQKNAAQFLLSTNDKTIKLWKISERDKRPEGYNLKEEDGRYRDPTTVTTLRVPVFRPMDLMVEASPRRIFANAHTYHINSISINSDYETYLSADDLRINLWHLEITDRSFNIVDIKPANMEELTEVITAAEFHPNSCNTFVYSSSKGTIRLCDMRASALCDRHSKLFEEPEDPSNRSFFSEIISSISDVKFSHSGRYMMTRDYLSVKIWDLNMENRPVETYQVHEYLRSKLCSLYENDCIFDKFECCWNGSDSVVMTGSYNNFFRMFDRNTKRDITLEASRENNKPRTVLKPRKVCASGKRKKDEISVDSLDFNKKILHTAWHPKENIIAVATTNNLYIFQDKVN
[10]
  binding: binds
